According to PMC4336329 (PLoS ONE, 2015):
About 14,000 (4.5%) of roughly 310,000 compounds showed an effect of 50% or more. The effect is printed as a negative number. The list shows a part of the results.

Biological target: human ether-à-go-go-related gene (hERG) potassium channel (human, UniProt Q12809)
Experiment: primary screen, population patch clamp on CHO cells stably expressing hERG
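Note: peak tail current of the secondary pulse compared with the same well before compound.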

human ether-à-go-go-related gene (hERG) potassium channel, sequence (Q12809 whole entry, looked up): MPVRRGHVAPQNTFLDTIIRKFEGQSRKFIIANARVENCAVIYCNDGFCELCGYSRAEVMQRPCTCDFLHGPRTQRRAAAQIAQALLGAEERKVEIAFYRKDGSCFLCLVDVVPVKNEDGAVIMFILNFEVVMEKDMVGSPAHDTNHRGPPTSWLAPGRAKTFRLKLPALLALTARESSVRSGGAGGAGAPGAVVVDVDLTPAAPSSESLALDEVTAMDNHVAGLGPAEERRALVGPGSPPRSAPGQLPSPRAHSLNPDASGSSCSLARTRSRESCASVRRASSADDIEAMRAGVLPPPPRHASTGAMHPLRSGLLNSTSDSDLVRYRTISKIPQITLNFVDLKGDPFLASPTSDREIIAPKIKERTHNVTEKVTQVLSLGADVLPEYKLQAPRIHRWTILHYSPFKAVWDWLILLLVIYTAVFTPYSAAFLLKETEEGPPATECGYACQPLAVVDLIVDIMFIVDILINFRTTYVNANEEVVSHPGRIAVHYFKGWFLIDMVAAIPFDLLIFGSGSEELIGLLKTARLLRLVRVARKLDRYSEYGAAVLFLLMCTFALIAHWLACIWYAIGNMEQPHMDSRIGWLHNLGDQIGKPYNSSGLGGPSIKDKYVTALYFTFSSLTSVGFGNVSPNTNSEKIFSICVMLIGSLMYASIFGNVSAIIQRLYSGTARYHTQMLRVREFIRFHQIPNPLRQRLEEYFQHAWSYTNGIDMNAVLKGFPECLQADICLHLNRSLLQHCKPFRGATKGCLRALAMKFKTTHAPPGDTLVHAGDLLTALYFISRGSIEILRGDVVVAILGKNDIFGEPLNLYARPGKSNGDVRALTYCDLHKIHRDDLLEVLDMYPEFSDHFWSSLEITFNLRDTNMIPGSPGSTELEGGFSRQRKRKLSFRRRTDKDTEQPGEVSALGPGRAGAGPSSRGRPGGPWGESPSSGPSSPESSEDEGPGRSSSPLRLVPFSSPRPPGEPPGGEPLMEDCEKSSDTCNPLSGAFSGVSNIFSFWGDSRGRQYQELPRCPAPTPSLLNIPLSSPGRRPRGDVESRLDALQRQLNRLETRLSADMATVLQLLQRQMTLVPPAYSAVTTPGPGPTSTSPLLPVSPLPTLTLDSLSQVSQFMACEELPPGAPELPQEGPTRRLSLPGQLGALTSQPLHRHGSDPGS

Compared with CC(C)NCC1CCc2cc(CO)c([N+](=O)[O-])cc2N1 (stereo not drawn), CCN(CC)C(=O)c1ccc2c(c1)C1C(Cl)C(Sc3ccccc3[N+](=O)[O-])CC1C(C(=O)O)N2 (stereo not drawn) is lower in “hERG current change (%, negative = inhibition) at 10uM” value: 13% for the first, -59.3% for the second.

Going from O=[N+]([O-])c1ccc(/C=N/Nc2nc(N3CCOCC3)nc(N3CCOCC3)n2)cc1 to N#Cc1nc(/C=C/c2ccccc2)oc1NCCCN1CCOCC1, the “hERG current change (%, negative = inhibition) at 10uM” value falls from 4.32% to -36.2%.

First: N#Cc1cc(Oc2cccc3cccnc23)c(-n2nnc3ccccc32)cc1C#N
Second: Cc1cc(-c2nn3c(-c4ccccc4)nnc3s2)c2ccccc2n1
The “hERG current change (%, negative = inhibition) at 10uM” value of the first is lower: -4.96% for the first, 9.47% for the second.

First: Cc1nn(C)c(Oc2ccc(Cl)cc2)c1C(=O)O
Second: COc1ccc(OCc2cc(C(=O)O)c(C)o2)cc1
The “hERG current change (%, negative = inhibition) at 10uM” value of the first is higher: 12.8% for the first, 2.69% for the second.

Going from CC(C)NC(=O)C(=O)N/N=C/c1ccco1 to O=C(N/N=C/c1cccc(O)c1)C(=O)N1CCCCCC1, the “hERG current change (%, negative = inhibition) at 10uM” value rises from 14.8% to 24.6%.

Going from O=C(O)CCNc1cc2ccccc2cc1C(=O)O to CC(=O)n1cc(N(C(=O)CCl)c2ccccc2)c2ccccc21, the “hERG current change (%, negative = inhibition) at 10uM” value rises from -1.7% to 1.19%.

Going from CN(C(=O)CSc1nc2sc3c(c2c(=O)n1C)CCC3)C1CCS(=O)(=O)C1 (stereo not drawn) to CN(C(=O)COC(=O)CCC1CCCCC1)c1c(N)n(Cc2ccccc2)c(=O)[nH]c1=O, the “hERG current change (%, negative = inhibition) at 10uM” value rises from -1.43% to 16.5%.

Compared with COc1cc(C)ccc1OCCOCCOc1ccccc1Br, COc1cccc(OC)c1OCCNCC1CSc2ccccc2O1.Cl (stereo not drawn) is lower in “hERG current change (%, negative = inhibition) at 10uM” value: 1.75% for the first, -53.6% for the second.

First: CC1CN(CCOc2ccccc2[N+](=O)[O-])CC(C)O1.O=C(O)C(=O)O (stereo not drawn)
Second: C=CCNC(=O)COC(=O)c1ccc(Sc2nncn2C)c([N+](=O)[O-])c1
The “hERG current change (%, negative = inhibition) at 10uM” value of the first is lower: 3.11% for the first, 25% for the second.

First: Cc1ccc(C)c(CN2C(=O)c3ccccc3S(=O)c3ccc(C(=O)N4CCN(c5ccccn5)CC4)cc32)c1 (stereo not drawn)
Second: CCOC(=O)N1CCN(c2ccc(C(=O)c3cccc(F)c3)cc2)CC1
The “hERG current change (%, negative = inhibition) at 10uM” value of the first is higher: 12.9% for the first, -40.2% for the second.

Compared with O=C(Nc1ccc(Cl)cc1)Nc1cnccn1, Cc1ccc(NC(=S)Nc2ccc(F)cc2)cc1C is lower in “hERG current change (%, negative = inhibition) at 10uM” value: 11.8% for the first, 7.56% for the second.

Going from COc1ccc(NC(=O)c2ccccc2SC)c(OC)c1 to COc1ccccc1N(CC(=O)Nc1ccc(F)c(F)c1)S(C)(=O)=O, the “hERG current change (%, negative = inhibition) at 10uM” value rises from -2.15% to -1.01%.

First: Nc1ncnc(N(c2ccccc2)C2CCCCC2)c1[N+](=O)[O-]
Second: O=C(CCC(=O)Nc1nnc(C2CCCCC2)s1)NCc1cccs1
The “hERG current change (%, negative = inhibition) at 10uM” value of the first is higher: 14.1% for the first, -5.27% for the second.

Compared with Cc1c(C)[n+](=O)c2c(n1[O-])C(Br)CCC2Br (stereo not drawn), Cc1cc(-c2csc(N)n2)c(C)n1-c1ccc(Cl)c(Cl)c1 is higher in “hERG current change (%, negative = inhibition) at 10uM” value: 5.34% for the first, 11.8% for the second.

First: COc1ccc(S(=O)(=O)N2CCCC(C(=O)Nc3cccc(C(C)=O)c3)C2)cc1 (stereo not drawn)
Second: C=CCNC(=O)C1CCN(S(=O)(=O)c2ccc(Br)cc2)CC1
The “hERG current change (%, negative = inhibition) at 10uM” value of the first is higher: -21.1% for the first, -58.7% for the second.

First: O=c1[nH]c(Nc2ccccc2)cc2cc(Br)ccc12
Second: O=C1C=C(Nc2ccccc2O)c2ccccc2C1=O
The “hERG current change (%, negative = inhibition) at 10uM” value of the first is higher: 17% for the first, -5.44% for the second.

Going from CCc1cccc(NC(=O)CCNS(=O)(=O)c2ccc3c(c2)oc(=O)n3C)c1 to Cc1cc(C)n(CCCNC(=O)CCNS(=O)(=O)c2ccccc2C(F)(F)F)n1, the “hERG current change (%, negative = inhibition) at 10uM” value rises from 6.45% to 10.6%.

Going from CC1Cc2ccccc2N1C(=O)c1ccc2c(c1)nnn2C (stereo not drawn) to CCc1nnc(NC(=O)CSc2nc3c([nH]c4ccccc43)c(=O)n2CCOC)s1, the “hERG current change (%, negative = inhibition) at 10uM” value falls from -6.1% to -6.31%.

Going from Cc1[nH]c2ccccc2c1Cc1nnc(SCc2ccccc2)o1 to Cc1sc2ncn(CC(=O)NCc3ccccc3)c(=O)c2c1C, the “hERG current change (%, negative = inhibition) at 10uM” value falls from 6.41% to 5.34%.

Going from CCc1ccc(N2CC(C(=O)OCC(=O)Nc3cc(C)on3)CC2=O)cc1 (stereo not drawn) to Cc1ccc(NC(=O)CN(C)C(=O)CSc2n[nH]c(N)n2)cc1, the “hERG current change (%, negative = inhibition) at 10uM” value rises from -18.2% to -2.07%.

First: COC(=O)CN(c1cc(Cl)ccc1OC)S(=O)(=O)c1ccc(C)cc1
Second: Cc1ccc(S(=O)(=O)NNC(=O)Nc2cccc(C)c2C)c(C)c1
The “hERG current change (%, negative = inhibition) at 10uM” value of the first is lower: -0.0949% for the first, 4.56% for the second.

Compared with COc1ccc(/C=N/NC(=O)COc2ccccc2-c2ccccc2)cc1, COc1ccc(-c2oc3ccccc3c2C(=O)OCc2ccc([N+](=O)[O-])cc2)cc1 is higher in “hERG current change (%, negative = inhibition) at 10uM” value: 3.37% for the first, 8.57% for the second.

First: Cn1c(=O)c2c(nc(NCCCO)n2Cc2cccc(C(F)(F)F)c2)n(C)c1=O
Second: Cc1cc(C)n(Cc2ccccc2F)c(=O)c1C#N
The “hERG current change (%, negative = inhibition) at 10uM” value of the first is lower: -6.7% for the first, -1.33% for the second.

Going from O=C(NCc1nnc(SCC(=O)N2CCCC2)o1)c1c(F)cccc1F to CCOC(=O)C1(Cc2ccccc2C)CCCN(C(=O)c2cc(CC)nn2C)C1 (stereo not drawn), the “hERG current change (%, negative = inhibition) at 10uM” value falls from 10.8% to -8.8%.

First: CCOc1nc(NC(C)C)nc(N2CC3CC(C2)c2cccc(=O)n2C3)n1 (stereo not drawn)
Second: CSc1nc(C)nc(N/C=C(\C#N)S(=O)(=O)c2ccccc2Cl)n1
The “hERG current change (%, negative = inhibition) at 10uM” value of the first is higher: 3.34% for the first, 2.68% for the second.

Going from Cc1ccn2c(C(=O)CSc3ccc(Cl)cc3Cl)c(C)nc2c1 to COC(=O)c1ccc(Nc2cc(C)nc3ccc(C)cc23)cc1.Cl, the “hERG current change (%, negative = inhibition) at 10uM” value falls from 20.9% to -55.6%.

Going from CSc1sccc1/C=N/NC(=O)c1ccncc1 to O=[N+]([O-])c1ccc(NC(=S)NCCc2ccc(F)cc2)cc1, the “hERG current change (%, negative = inhibition) at 10uM” value falls from -0.626% to -11.8%.

Compared with CCC(C)C(=O)Nc1nc2c(s1)C(=O)CC(C)(C)C2 (stereo not drawn), CCOC(=O)Cn1c(=NC(=O)CC)sc2c(C)cc(C)cc21 is higher in “hERG current change (%, negative = inhibition) at 10uM” value: -12.7% for the first, 13.9% for the second.

COC(=O)c1c(C(=O)OC)n(CCCN)c2ccc(C)cc12.Cl was tested, and the “hERG current change (%, negative = inhibition) at 10uM” value was -77%.
